Laboratory results published in PubChem BioAssay (NCI).
“And” between values parts separate entries of the source, which are not always exact repeats. Identical values can stand only once.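 Grown in 96-well plates, cells were treated for 48 hours with each compound at five concentrations. Insufficient inhibition: endpoint recorded as highest concentration tested. GI50 = concentration required for 50% inhibition of growth. The concentration for full growth arrest is given as TGI.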

tested on: NCI-H322M lung; assay: inhibition of tumour cell growth, NCI panel, 48 h

Row | Structure (SMILES) | GI50 | TGI [µM]
1 | COc1ccc2c(c1)C(=O)c1c-2n(CCCN=[N+]=[N-])c(=O)c2cc([N+](=O)[O-])ccc12 | 0.397 µM and 2.91 µM | > 100
2 | Clc1ccc(-c2nnc(-c3nn(-c4ccccc4)c4nc5ccccc5nc34)o2)cc1 |  | > 100
3 | C/C(=N\N)C(CN1CCOCC1)C(c1ccccc1)c1c(O)c2ccccc2oc1=O (centres undefined) |  | > 100
4 | CSc1ccc(Cc2cc(C(C)(C)C)cc(C(C)(C)C)c2O)cc1 |  | 32.4
5 | COc1ccc2cc(C(=O)N3CCC([C@@H](C)C(=O)NCc4ccc5c(c4)OCO5)CC3)[nH]c2c1 | > 100 µM | > 100
6 | COc1nc2c(c(=O)[nH]1)N=C(c1ccccc1)CC(c1ccccc1)N2 (centres undefined) |  | > 100
7 | Cc1ccccc1SC(/C=C/NNC1=NC(c2ccccc2)C(c2ccccc2)=NN1)c1ccccc1 (centres undefined) |  | 56.5
8 | CCOC(=O)C(=CNc1ccc(S(N)(=O)=O)cc1)C(=O)OCC |  | > 100
9 | [N-]=[N+]=C1C(=O)C2CC3CC1CC2C3 (centres undefined) |  | > 100
10 | Cc1c(C)c(S(=O)(=O)N(CCCN)OCCCN)c(C)c2c1OC(C)(C)CC2 |  | 30.7
11 | COc1ccc2c(c1)/C(=C\c1c(-c3ccccc3)nc3sccn13)C(=O)N2 | > 100 µM | > 100
12 | CC(C)(C)OC(=O)NC(Cc1ccccc1)C(=S)N1CCCC1 (centres undefined) |  | > 100
13 | CCOC(=O)C1=NN(c2ccc(C)cc2)C2(c3ccccc3)C=C(c3ccccc3)N(C)CCN12 (centres undefined) |  | > 100
14 | O=C(N/N=C\c1ccc(N(CCCl)CCCl)cc1)c1cccnc1 | > 100 µM | > 100
15 | CC(=O)OCCCCn1nncc1Cn1ccc(=O)n(Cc2cnnn2CCCCOC(C)=O)c1=O |  | > 100
16 | COC(Cc1cc(C(O)(c2ccc(C(C)(C)C)cc2)c2cc(CC(OC)(c3cc(C(OC)(c4ccc(C(C)(C)C)cc4)c4ccc(C(C)(C)C)cc4)c(C)cc3C)c3cc(C(OC)(c4ccc(C(C)(C)C)cc4)c4ccc(C(C)(C)C)cc4)c(C)cc3C)c(C)cc2C)c(C)cc1C)(c1cc(C(OC)(c2ccc(C(C)(C)C)cc2)c2ccc(C(C)(C)C)cc2)c(C)cc1C)c1cc(C(OC)(c2ccc(C(C)(C)C)cc2)c2ccc(C(C)(C)C)cc2)c(C)cc1C |  | > 75
17 | CC[C@@]1(O)C(=O)OCc2c1cc1n(c2=O)Cc2c-1nc1ccccc1c2/C=N\NC(=O)C(N)Cc1ccc(O)cc1 (some centres undefined) |  | > 31.6
18 | O=C(N/N=C/c1ccc([N+](=O)[O-])cc1)c1ccccc1Nc1ccnc(C(F)(F)F)c1 | 10.7 µM | 36.9
19 | Nc1ccc2nc3n(c2c1)C(c1c(F)cccc1F)SC3 (centres undefined) |  | > 100
20 | CN1CCN(c2ccncc2S(=O)(=O)N2CCN(C)CC2)CC1 |  | > 100
21 | CC(C)(Oc1ccc2c(=O)cc(-c3ccc(Cl)cc3)oc2c1)C(=O)Nc1c(Cl)cccc1Cl |  | > 100
22 | COC(=O)[C@H](Cc1ccccc1)NC(=O)OCC1OC(n2cc(C)c(=O)[nH]c2=O)CC1N=[N+]=[N-] (some centres undefined) |  | > 100
23 | O=C(NC1CCCCC1)NC12CC3CC(CC(F)(C3)C1)C2 |  | > 100
24 | CO/S(=N/S(=O)(=O)c1ccccc1)c1ccccc1[N+](=O)[O-] (centres undefined) |  | > 100

Row | Structure (SMILES) | GI50 | TGI [µM]
25 | CC1=C(O)C(=O)C2C(=O)C1C(C)C2c1ccccc1 (centres undefined) |  | > 100
26 | O=C([O-])c1ccccc1Nc1ccccc1C(=O)[O-].[OH3+].[Zn+2] |  | 47.2
27 | Cn1c(=O)nc2n(-c3ccc(F)c(F)c3)c3ccccc3nc-2c1=O |  | 68.5
28 | NCCCNCc1c2ccccc2c(CNCCCN)c2ccccc12 |  | 65.8
29 | O=CC1=CCCN(CCc2c[nH]c3ccccc23)C1 |  | 103
30 | N/C(=C\c1ccc(/C=C(\NC(=O)c2ccccc2)c2nc3c([nH]2)C(=O)c2ccccc2C3=O)cc1)c1nc2c([nH]1)C(=O)c1ccccc1C2=O |  | 33.1
31 | N=C1c2ccccc2C(=O)c2c(NCCNCCO)ccc(O)c21 |  | 29
32 | N#CC12CC(C=O)=C(N)C1(C#N)CC(C=O)=C2N (centres undefined) |  | > 100
33 | Cc1cccc2c(=O)c3c(sc12)c(NCCCN)nc1ccccc13 | 1.59 µM | 3.02
34 | COC(=O)[C@@H](C)C[C@H](Cc1ccc(F)cc1)NC(=O)c1csc([C@@H](C[C@H](C(C)C)N(C)C(=O)[C@@H](NC(=O)[C@H]2CCCCN2C)C2CC2)OC(C)=O)n1 | 1.19 µM | > 25
35 | O=C1/C(=C/c2ccc(Cl)cc2)N=C(c2ccccc2)N1c1cc(C(F)(F)F)ccc1Cl | 38 µM | > 100
36 | Cn1cnc(SC2=CC(=O)C=C3S[C@H]4C[C@@]23c2c(c(O)c3c5c2=NCCC=5C=N3)N4)c1CC(N)C(=O)O (some centres undefined) | 5.24 µM | 17.3
37 | O=[N+]([O-])c1cc(I)cc(/C=N/NS(=O)(=O)c2ccc(F)cc2)c1O |  | 65.6
38 | O=c1oc2ccc(F)cc2c(=O)n1-c1ccc(I)cc1F | 0.404 µM | 11.3
39 | NS(=O)(=O)c1ccc(N=Nc2ccc(O)cc2)cc1 |  | > 100
40 | COc1cc(/C=C2\N=C(c3ccccc3)N(c3nc4ccccc4s3)C2=O)cc(OC)c1OC |  | > 100
41 | COc1ccc(-c2c(NC(=O)Nc3ccc(Cl)c(C(F)(F)F)c3)cnn2-c2ccc(S(N)(=O)=O)cc2)cc1 | 3.91 µM | 14.3
42 | COc1ccc(C/C=C(\C)CCO)cc1 |  | > 100
43 | CCCCNC(=O)Oc1ccc(/C(=C(\C)c2ccc(OC)cc2)c2ccc(OCCN3CCCCC3)cc2)cc1 | 3.77 µM | 16
44 | CON1C(=O)C2(CCCCC2)C(=O)C12C=CC(C)CC2 (centres undefined) |  | > 100
45 | C=CC(=C)CCC(Br)C(C)(C)Br (centres undefined) |  | > 100
46 | Cc1cn(CCCCOC(=O)NC(CCCN=C(N)N)C(=O)O)c(=O)[nH]c1=O (centres undefined) |  | > 100
47 | COc1ccc2c(c1)c1ccc3c(c1n2C)C(=O)C=CC3=O |  | 57.8
